Over roughly 33,000 sequences, “E-score (-0.5 to 0.5)” has its median near -0.056; the highest 2% begin near 0.38. The list shows a part of the results.
biological target: Stb4 (UniProt P50104); assay: PBM E-score (8-mer binding enrichment) (E-score (-0.5 to 0.5)); higher = stronger / more preferred TF binding; most listed sequences are background and not binding sites; settings: protein concentration: 200 nM; construct: GST-DNA-binding domain
How it was run: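 Full-length yeast transcription factors or their DNA-binding domains, GST-tagged and expressed with PURExpress, were applied at about 100-200 nM to universal all-10-mer Agilent arrays. These arrays had been made double-stranded by primer extension on fresh or once-stripped slides. Detection used fluorescent anti-GST, normalisation used masliner, and E-scores for ungapped eight-base words pooled with reverse complements came from the Universal PBM Analysis Suite.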

Sequence	PBM E-score
ATGGAAGA	-0.0187
ATGTATAA	-0.0161
AAGCGATG	-0.195
GGAGATTA	0.0261
GAAAACAA	0.0824
TGGGCCAA	-0.0827
GCTGGGAA	0.0669
ATCTCTCA	-0.0705
TAAGTGTA	-0.148
CGCACCCC	0.0164
TTAGCCAA	-0.159
TAACAGAA	-0.117
CGTTCGCA	-0.255
CCGGGTAG	0.355
CGTAACGA	-0.192
ACTGCGGC	0.0711
CATTTTGA	-0.162
CGCTTAAA	-0.0775
CGACCCCG	0.217
AGACTACG	-0.146
GCATACAC	0.0295
AAATATAG	-0.0277
GAGGCTCA	-0.22
CCTTTATC	-0.0418
CTCCCAGC	-0.0979

Sequence	PBM E-score
TAAGGATA	0.00463
ATTATTCA	-0.0678
ACGGCCAC	-0.0623
ATGGTTGA	-0.127
CACAACTA	0.0556
CTCACAAA	0.0299
CGCGTGGC	-0.0796
AATTCAGG	-0.0525
GGTGCTAA	-0.0165
AATCAATG	0.034
AATCTACG	0.0182
GTGTGAGA	-0.196
CAGTGTAC	-0.0701
TAACAATA	-0.0588
CGGAATAG	0.357
TATCTTCA	-0.189
CGGTTGCC	0.243
AATGTTAG	-0.0387
GCTCCTGA	-0.0055
CACAAGCG	-0.223
GAGAGAAC	-0.132
ACTGGAAT	-0.142
CGCAGGGC	-0.0286
CCGTTCCA	0.183
TCTGACAA	-0.0896

Sequence	PBM E-score
CGCAACTA	0.0471
AGCTATTA	-0.136
GAAGGCGC	-0.185
ATAATTCA	-0.045
GAGCCTAA	-0.0415
CGTTAACG	0.0456
TGCCGTAA	0.0829
CAAGAACC	-0.0737
AGAGTGTG	-0.111
ACAGTTAG	-0.171
GACTCGTA	-0.1
ACACATAG	-0.244
CACTATGG	-0.127
CAATCCAG	-0.14
CTTTACGC	-0.175
AGCGTCAT	-0.161
CAAAGCGG	0.181
CTCCCCGA	0.282
AAACTTCA	-0.0559
ACATAAGT	-0.123
GATTAAGC	0.146
CAAATCTG	-0.245
AATTTAGC	0.0778
AAAGTTCT	0.0237
ACGGCGAT	0.021

Sequence	PBM E-score
CACTACAA	-0.122
ACGCGACG	-0.13
AAAGACCG	0.135
CCGACCTA	0.296
GAAACTGA	-0.0639
ATCGAGAT	-0.134
GCACTCCC	-0.0044
TCGGTCAA	0.125
CGTCGCTA	-0.115
CGCCTTGA	-0.043
GCCACCGC	-0.0977
ATCGGTTA	0.368
GAAGAAAA	0.0784
CTTTATTC	-0.0862
CCCTGGCC	-0.216
CGACCTAA	0.174
CGAGTCTC	0.0605
GTTTATAA	0.21
ACCCGTGC	0.188
CATAGTCA	-0.202
CCTGCAGG	-0.0996
CAAGATTG	-0.236
CACCCCTC	0.125
AGAAGAGG	-0.195
ATAACTAC	-0.102

Sequence	PBM E-score
ACCTAAAC	0.138
CCCATACA	-0.173
ATGCCTGG	-0.26
ACTTGCAT	-0.0182
GCTACGTA	-0.0806
ATTGCAGC	-0.0905
ACAGCGGG	0.0241
CAGAACGA	-0.305
CATAGGAC	-0.271
AGATCGCC	-0.194
AGAAACCA	-0.156
GGGGAAAA	0.0659
ATCCTAGC	-0.239
CGGCTGCA	0.299
GTTCTACA	-0.196
CAGGTGGA	-0.236
TGTAACAA	-0.183
ATTCTCAG	-0.183
ATCAGAAA	-0.165
AACGCCCC	0.0739
ACTTTCAT	-0.0733
AATAGGGC	-0.139
CTTAACTA	-0.164
ATCTTAAG	-0.187
CTAGTGAG	-0.0255

Sequence	PBM E-score
CGTCTGAC	-0.0606
ATACTTCA	-0.271
ATCCCCGA	0.326
CAATAAGA	-0.0142
ACGGCTCT	0.0596
ATCTTAAA	0.0841
CCTTGCTA	-0.191
GAGCCCCC	-0.168
CAAGCGGA	0.206
AGCTGAGC	-0.155
CTGCGATC	-0.0408
AAAGGCAT	0.0246
AATCCTTG	-0.109
GGAGGCGA	-0.0436
TCGCCAAA	-0.0978
ATTTGCTG	-0.125
CCTCATTA	-0.163
AATATCAC	0.0295
AAGTCAAC	-0.27
CAGCGACC	-0.103
AGTTCTCG	0.0181
AAAGTAAA	-0.123
ATTGCATC	-0.0187
ATGAGTAA	0.0162
AGAAAGTG	-0.0811

Sequence	PBM E-score
CTTTTCCC	0.0541
ATACAATG	-0.0129
GGGGCACC	0.0181
AACATGGC	-0.202
AATGGGAA	-0.223
AAGAAGAT	0.0368
CGGTGAAA	0.216
GCTCCACA	-0.0061
GAAAAAGC	0.186
CAACTGAC	-0.102
ACGAAAAG	-0.23
ATCACAAC	-0.0964
GTACATAC	0.0415
AGAGCCTA	-0.297
AGCGCCGA	0.371
TCTGCAAA	-0.122
GCAATAGA	-0.0983
AACACGTT	-0.218
AAGAAATA	-0.0625
ATGCTATA	-0.228
CTCCTTTA	-0.116
CTGCTACA	-0.114
CGCGGAGA	0.153
ATTCCTGA	-0.149
AAATGACA	-0.182

Sequence	PBM E-score
TCGACTAA	-0.256
CCGTGTCA	0.237
AGGTACTA	-0.153
CAAACTTC	0.108
CCCTGGGC	-0.249
TCGAGACA	-0.144
CCGGGGCC	0.268
CCCCCCCC	-0.318
ACCTATCC	0.191
CATGACTA	-0.219
AATTAATG	0.162
CCTGTTCA	-0.145
AAATTTTC	0.195
CACTTAGC	-0.0703
ACTTGTGG	-0.153
CAAGGAGC	-0.249
CCCACAAG	0.0281
AAGGATCG	0.131
CCGTAGTC	0.159
GAGGACGC	0.0485
GAATGAGC	0.017
GAGCTGGC	-0.145
ATTGTGGC	-0.101
AAACGACC	0.00802
AAACCTCA	0.0266

Sequence	PBM E-score
ACACAGGA	-0.14
GCATGAGC	-0.122
CGTCCAGC	-0.186
AAAACAGC	0.0238
AGTATCCG	0.436
ATATCCGA	0.482
ACGGAGTC	-0.0191
CCCCGGTA	0.174
CACCCCCC	-0.0898
TGTCGCAA	0.0455
AACCCTAG	-0.213
CACGGACC	0.114
GTCCGATA	0.22
TGAGGGAA	-0.119
ATTTAAGG	-0.0945
AATCATGG	-0.266
AATAGTCA	-0.0161
AGCAGGCC	-0.114
CTACGCTA	-0.029
AACGTCTC	-0.176
GCTCCAAA	-0.0474
ATCCTATG	-0.216
AACGAGCA	-0.189
ATCTCCGG	0.345
ATTAATAA	0.161

Sequence	PBM E-score
TACACGTA	-0.0156
CCCTACAC	0.0388
CGTCATCA	-0.183
AATGAGGT	-0.00912
CAACGCAC	-0.164
ATAATAGC	0.0769
CTAGTCTC	-0.0684
ATCTCGAA	-0.0183
ATTTCTGG	-0.155
GGAGGATA	-0.0736
CTGTGAGC	-0.22
ATGTAGTC	-0.159
CACTACAG	-0.087
GGTAACCA	0.0374
CGGAGTAC	0.239
GCTTTGAA	-0.281
TGATCCCA	-0.188
ACGTGAAC	-0.176
ATTGTGGA	-0.187
CGTGGAAC	-0.0413
CCATTCAG	-0.05
CAGATGCC	-0.079
GACGGGGA	0.227
CGCGGGCC	0.185
AGGTCCTA	-0.206

Sequence	PBM E-score
GCTTGGTA	-0.238
CATGGTAC	-0.127
GGATGGGA	0.0414
AAAAGCCA	0.0382
CCCGTGAG	0.127
CCCGCAGG	0.115
TAGTACAA	-0.238
CTGATCAC	-0.275
AAGAACGA	7e-05
CACTTCTA	-0.0172
TCGGTACA	0.356
CGCACTTA	0.0972
ACGTCAGG	-0.112
CATCGGGG	0.168
AAAGGCTG	-0.114
GGCGCGAC	0.209
AGAAAGTA	0.0802
CCGTGCAC	0.00756
AAATGCCA	-0.168
ACGTCAAG	-0.211
AAGGCACA	0.00963
GGTCATAA	0.053
GTGCTCAA	-0.0249
CATCGAGG	-0.167
AGTGCCCC	-0.102

Sequence	PBM E-score
CCTCCCCC	-0.237
TAGGGTAA	0.0765
CGCCATTC	0.0794
ATCATGAT	-0.149
ACGTGAAA	-0.046
ACCCACTA	0.113
AGCGTACC	-0.0116
CCCGAATC	0.397
TCGCCTCA	-0.0701
GTATGCGA	0.0265
CTCCGTTA	0.0713
AATCAATC	0.055
GATGTTAA	0.0159
ACAGATAA	-0.0723
ACGTGTAA	-0.0473
AAGCGCAG	0.0233
ATCCTCCC	0.203
CATTACCA	0.0238
AGGCGGGG	0.117
CAAGGACC	-0.0279
CCTTACTA	0.00726
ACACTGTA	-0.146
TCCCAGAA	-0.159
TCTCTCCA	-0.198
ATTATTTA	0.0973

Sequence	PBM E-score
ATATTCGA	0.0718
AAGCGGAC	0.118
CGAGAAAC	0.151
ATCGGGAG	0.367
ATTCGCTG	-0.112
AACCGCTT	-0.0152
GACCGCGC	0.033
ACAATGAG	-0.276
CCACGCTC	-0.108
ATCGACAC	-0.0716
ACGGTGAC	-0.103
CTTCACAA	-0.17
GCGAAGTA	-0.0361
CACGGTGG	-0.061
ACCGGGGC	0.16
CTGCCGAC	0.331
CAACCTGG	-0.192
CCCCGGAA	0.27
ACATAAAA	-0.217
AAATCAGA	-0.0451
CCTACCCC	-0.0168
ATCTTTCG	0.0575
AACAGTGG	0.0178
GATAGTAC	-0.0416
TACCATGA	-0.32

Sequence	PBM E-score
AGGGCCCG	0.205
GTCTTTCA	-0.00663
ACCAATCA	-0.0969
ACGTTTGC	-0.11
ACAGACAT	-0.0423
CAATTAGC	0.0579
CCGTCATA	0.218
ACACTTTA	-0.0241
CTGATAAG	-0.0785
ACTAACTC	-0.0493
ACGTCGAT	-0.177
CCCCCACA	-0.36
CCACGCCC	-0.0253
ACTTGTCT	-0.0919
AGACGGGA	0.174
ATTCTCCA	-0.107
ACCCCGCG	0.0917
CCCCCAAC	-0.271
GTAGCAGA	-0.187

From the supplement of paper PMC3334620
